Over roughly 33,000 sequences, “E-score (-0.5 to 0.5)” has its median near -0.016; the highest 2% begin near 0.32. Some of the results follow.
Molecular target: T1, Stp1 (UniProt B3LFK1)
T1 sequence: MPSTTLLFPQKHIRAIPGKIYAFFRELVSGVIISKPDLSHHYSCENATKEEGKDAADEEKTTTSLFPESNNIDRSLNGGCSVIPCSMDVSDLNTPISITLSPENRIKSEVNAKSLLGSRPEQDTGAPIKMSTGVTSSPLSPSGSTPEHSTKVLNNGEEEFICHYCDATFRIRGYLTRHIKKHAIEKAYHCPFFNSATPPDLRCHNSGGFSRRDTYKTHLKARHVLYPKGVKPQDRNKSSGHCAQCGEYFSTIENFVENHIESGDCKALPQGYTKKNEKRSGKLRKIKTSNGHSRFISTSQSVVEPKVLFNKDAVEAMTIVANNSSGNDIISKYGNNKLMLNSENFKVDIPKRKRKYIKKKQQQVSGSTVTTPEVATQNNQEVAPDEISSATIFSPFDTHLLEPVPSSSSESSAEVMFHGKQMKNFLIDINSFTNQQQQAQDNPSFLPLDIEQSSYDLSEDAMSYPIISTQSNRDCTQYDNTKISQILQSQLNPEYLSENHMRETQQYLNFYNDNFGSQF
Test: PBM E-score (8-mer binding enrichment) (E-score (-0.5 to 0.5)); higher = stronger / more preferred TF binding; most listed sequences are background and not binding sites
Details: protein concentration: 200 nM; construct: GST-full length
Method in brief: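 GST-tagged yeast TFs (full-length or DNA-binding domain) were made by PURExpress in vitro transcription/translation and applied at about 100-200 nM to universal all-10-mer Agilent arrays. The arrays were made double-stranded by primer extension, on fresh or once-stripped slides. Bound protein was detected with fluorescent anti-GST, and scans were normalised with masliner. Each ungapped eight-base word, pooled with its reverse complement, received an E-score (modified Wilcoxon-Mann-Whitney statistic) from the Universal PBM Analysis Suite.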

Sequence	PBM E-score
AACTCCCC	-0.012
TTATAAAA	0.222
GAACTGTC	-0.0423
ACTCGCAG	-0.188
CCTCAGCA	-0.0706
GAGAGGAC	-0.0873
AGGCGATG	0.0931
CGAACTCG	0.00865
AATTCCCC	-0.108
CGTGGTTC	0.0667
CACCCGTG	-0.0331
GTCTATTA	-0.0926
CTTTAGAC	0.0481
TCAGTAGA	-0.0633
AAGTACAT	0.0214
GGAATGAA	0.09
ACTGCCCC	-0.289
AAGTTCGC	0.0513
CTAGGAAG	-0.273
TCCTGTCA	-0.029
CCAGATAC	-0.015
GCTCAATA	0.0426
GCATTATA	-0.0517
CTGCAGAC	-0.159
ATAAATAG	-0.0604

Sequence	PBM E-score
CAGAATAA	0.059
AGTTCAAA	0.113
AACCCTAT	-0.164
AGGCCTAG	-0.168
CCGGCATA	-0.183
CGTCTAAA	-0.0578
GCTCGGCA	0.246
CTGAGTAC	-0.03
CAATCTAC	-0.176
GGTGCGAC	-0.0804
AGTAGGTA	0.0213
ACAACGCT	-0.142
CTTTCGCC	0.0289
GAACACTC	0.0893
GTACTCTA	-0.0718
CCGCCTAA	-6e-05
GCTGCCGA	0.011
ATAAGGTA	-0.171
TCCTTCGA	-0.0678
GAAGATTC	0.0984
AAGAGTTC	-0.22
GATCGAAA	0.214
GAAAGTTC	-0.0403
ACAGGTCC	-0.256
AGCTTGGA	-0.231

Sequence	PBM E-score
AATATCAA	0.0535
AATTGCGA	-0.0982
AACGTCCT	-0.171
CGGTAGAC	-0.0621
AGACAAGA	0.126
TAACACAA	0.0905
CCGGCCAG	-0.0747
GAATGTAC	0.014
CCCCATTA	-0.158
ATTTACAC	0.0489
CCCGGGGA	-0.317
CTGTAATA	0.142
ATAAAAAT	0.0615
ATTGGTTG	-0.0346
CTCGAGCC	-0.221
AAGAACGC	0.185
ATCCGGAC	-0.166
AGATCTTC	-0.158
GATAGAAC	0.0526
ATTGCTGA	-0.0348
GATTTCCC	-0.0966
CGGCTAAC	0.284
AGCGGACT	-0.313
ATTAGGAA	0.0739
AACGTTAA	0.153

Sequence	PBM E-score
ATACTAGC	-0.022
GATGACTA	-0.138
CAATGTAC	-0.169
GGATCAAC	-0.0265
CACGAAAA	0.272
GATCCCTA	-0.0567
GTCGGTGA	-0.136
ACCTTGTA	0.0137
CCGTTTTC	0.269
CCCCTGTC	-0.321
ATAATATG	0.159
AGGCCTAA	-0.118
ACACCTTG	-0.0812
AACTCCCA	-0.105
GACGCACC	-0.0744
CGCTATCA	0.0552
CAACCGTA	0.0882
AAATAGCG	0.171
GGATCGAA	0.0801
AAGCTGCC	0.024
AATCCTCA	-0.0502
CAAAACTA	0.243
ATATCGTC	-0.12
GCAAATCA	0.0745
AACGCTAC	-0.072

Sequence	PBM E-score
AACCTCTT	0.0171
AGGATCCA	-0.181
CCTCACCC	-0.0609
GCTCTCAC	-0.211
AAGCTCAT	-0.206
ACGCTGCA	-0.132
CCGAGAAC	0.0968
AGGTCCGG	-0.15
ACAGAACG	-0.0053
GCTACCGA	0.0275
CGCCTGCC	0.155
AAGTCCGC	-0.0419
CTCCGCTA	-0.119
CCCTCCCG	-0.203
CCACGAAA	0.157
GAGCCATC	-0.0799
CTAAAATA	-0.0326
AAAGCGCA	-0.215
CGACTCCG	-0.155
TGGGCAAA	-0.0411
ACGCGTTC	-0.0447
AAATAATC	0.146
ATGCATAC	0.0588
CTTCCCCC	-0.402
ACTCGGCC	-0.0586

Sequence	PBM E-score
ATGAAAGA	0.0296
CATGCCAA	0.148
TTACTCAA	0.11
AACTCCCG	-0.0619
AGTTGCAG	-0.0709
AAGACTTG	-0.0595
GTTAGTAA	0.0217
GTTATAAA	0.0721
CTCACAGA	-0.0214
ATGTAGTG	-0.115
CCGGACGC	0.116
ACAAAACA	0.0402
AGTGGTGA	-0.02
AGCCATAG	-0.175
CCTTTACC	-0.05
CGATTGCG	0.0823
CTGCGCCC	-0.113
ACTTGATA	0.0701
AAGCGATA	-0.0347
AGTTCGCC	0.159
ATGTGGCA	0.27
AATGCTAG	-0.0505
CGGACGGC	0.442
AAGTAATG	-0.0435
CGCTACAA	-0.05

Sequence	PBM E-score
TATGATGA	0.162
GTCAATAA	-0.0639
ACCTTATG	-0.0423
CAACTCTA	-0.153
CGGAGATC	-0.221
GACCCGTA	-0.109
CTACTAAA	0.00052
CTTGGTTA	-0.0742
CTGAGTGC	-0.236
CAGTCGGA	-0.127
ATAGATGC	0.0729
AGATCTAC	-0.116
GCGGGCGA	0.0158
AAGTTTTG	0.078
CGAAACGA	0.0741
ATAAATAC	0.31
GTAAAGCA	0.142
CCGGGCCA	-0.261
GAGAAGGA	-0.189
CACTATAG	0.00757
AGCTCGGC	0.2
CACATTAC	0.157

Reference: the supplement of paper PMC3334620
